# Toxic doses and inconclusive results are not listed. Certain results were filed several times, with different values. The list is limited to them. The source may hold further records. Results that share an entry differ, and nothing given here explains why; they may come from other doses, times, organisms or constructs than stated.
# Tested on: L1210 leukemia ip in BDF1 mice, survival T/C
# Assay: NCI In Vivo Anticancer Drug Screen. Data for tumor model L1210 Leukemia (intraperitoneal) in B6D2F1 (BDF1) mice
# Conditions: endpoint: mean survival time, schedule: Q01DX001 (ip), vehicle: saline, higher = longer survival
structure (smiles),measurement,setting,value
O=C1N[C@@H]([C@H]2CC[C@H](Cl)CN2)C(=O)N[C@H]1[C@H]1CC[C@H](Cl)CN1,T/C,dose: 2.0 mg/kg/injection,100 % of control and 171 % of control
same,T/C,dose: 4.0 mg/kg/injection,101 % of control and 163 % of control
same,T/C,dose: 8.0 mg/kg/injection,107 % of control and 442 % of control

# — PubChem BioAssay AID248 (DTP/NCI, 2004)
